Measured values reported in PMC4336329 (PLoS ONE, 2015).
About 2,200 (0.71%) of roughly 310,000 compounds showed an effect of 50% or more. Effects have a minus sign here. The list shows a part of the results. *1 amine or outer side, *2 acyl side, *3 side chain or, on linkers, in order; H or OH if unused. Where a SMILES comes first, the peptide text is derived from it. Bridges are numbered along the chain shown (N, C = ends). [ ]: non-standard residue; d: D form. ξ: configuration not given here. hSer(Ph(2-I,4-NO2,6-CO)) = O=C([C@H](CCOc1c(I)cc([N+](=O)[O-])cc1C(=O)[*:3])N[*:1])[*:2]; ξD = NC(CC(=O)O)C(=O)O

Each compound was assayed against human ether-à-go-go-related gene (hERG) potassium channel (human, UniProt Q12809) (assay: primary screen, population patch clamp on CHO cells stably expressing hERG).
Chain of human ether-à-go-go-related gene (hERG) potassium channel (Q12809 whole entry, looked up): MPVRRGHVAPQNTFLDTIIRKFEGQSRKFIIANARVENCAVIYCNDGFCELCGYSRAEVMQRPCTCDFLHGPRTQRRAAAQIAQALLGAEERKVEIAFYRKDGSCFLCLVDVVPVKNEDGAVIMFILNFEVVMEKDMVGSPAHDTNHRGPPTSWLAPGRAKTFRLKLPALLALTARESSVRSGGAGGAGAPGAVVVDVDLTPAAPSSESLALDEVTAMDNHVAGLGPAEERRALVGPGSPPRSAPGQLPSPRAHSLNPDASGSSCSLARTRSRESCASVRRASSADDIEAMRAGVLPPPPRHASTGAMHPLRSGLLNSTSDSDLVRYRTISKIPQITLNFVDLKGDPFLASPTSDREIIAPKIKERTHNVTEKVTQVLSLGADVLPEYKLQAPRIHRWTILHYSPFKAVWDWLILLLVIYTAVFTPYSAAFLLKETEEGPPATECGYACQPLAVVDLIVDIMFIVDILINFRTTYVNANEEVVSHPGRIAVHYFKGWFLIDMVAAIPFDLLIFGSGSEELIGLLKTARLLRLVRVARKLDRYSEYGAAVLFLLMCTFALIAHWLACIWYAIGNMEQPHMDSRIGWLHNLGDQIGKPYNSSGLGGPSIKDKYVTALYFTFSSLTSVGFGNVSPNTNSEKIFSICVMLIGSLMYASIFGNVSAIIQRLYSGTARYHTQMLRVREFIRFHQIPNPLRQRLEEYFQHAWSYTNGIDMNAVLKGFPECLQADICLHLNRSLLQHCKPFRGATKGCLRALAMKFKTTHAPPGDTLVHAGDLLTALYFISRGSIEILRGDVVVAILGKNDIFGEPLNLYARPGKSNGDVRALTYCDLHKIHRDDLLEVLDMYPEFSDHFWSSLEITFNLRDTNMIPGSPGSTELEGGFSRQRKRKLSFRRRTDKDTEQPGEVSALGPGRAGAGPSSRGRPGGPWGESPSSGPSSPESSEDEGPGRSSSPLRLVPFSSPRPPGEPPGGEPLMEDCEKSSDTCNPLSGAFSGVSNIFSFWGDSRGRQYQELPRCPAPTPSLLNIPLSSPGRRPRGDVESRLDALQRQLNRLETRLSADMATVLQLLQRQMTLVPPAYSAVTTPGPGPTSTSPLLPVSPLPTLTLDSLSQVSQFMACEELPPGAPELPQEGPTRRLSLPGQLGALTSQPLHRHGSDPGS
In the case of `Cn1cccc1/C=N/n1c(-c2ccc(C(C)(C)C)cc2)n[nH]c1=S`, the “hERG current change (%, negative = inhibition) at 1uM” value is reported as 14.7%.
With `COc1ccc(CCNC(=O)C(=O)NCC2CCCO2)cc1OC` (centres unmarked) the “hERG current change (%, negative = inhibition) at 1uM” value was 7.23%.
`Cc1cc(C(=O)Nc2ccc(N3CCOCC3)cc2)c2ccccc2n1` was tested, and the “hERG current change (%, negative = inhibition) at 1uM” value was 8.83%.
With `CCOC(=O)c1c(NC(=O)CN2CCCCC2)sc(CN(C)C)c1-c1ccccc1` the “hERG current change (%, negative = inhibition) at 1uM” value was 13.4%.
In the case of `O=C(Nc1ccc2nccnc2c1)c1cnccn1`, the “hERG current change (%, negative = inhibition) at 1uM” value is reported as 17.8%.
For `CN(C)S(=O)(=O)N(CC(=O)N1CCN(Cc2ccccc2)CC1)c1ccccc1`, the “hERG current change (%, negative = inhibition) at 1uM” value was 1.98%.
With `COC(=O)c1ccc(C2CC(=O)Nc3cc(OC)c(OC)c(OC)c32)cc1` (centres unmarked) the “hERG current change (%, negative = inhibition) at 1uM” value was -3.27%.
With `O=C(CSc1nnc(-c2ccc(Cl)cc2)n1-c1ccc(Cl)cc1)N/N=C/c1ccco1` the “hERG current change (%, negative = inhibition) at 1uM” value was -1.3%.
With `CCN(C(=O)C12CC3CC(CC(C3)C1)C2)C1CCS(=O)(=O)C1` (centres unmarked) the “hERG current change (%, negative = inhibition) at 1uM” value was 10.8%.
In the case of `COc1ccccc1C(=O)NC(CCSC)C(=O)NNC(=O)c1ccncc1` (centres unmarked), the “hERG current change (%, negative = inhibition) at 1uM” value is reported as 15.5%.
In the case of `Cc1ccc(OCC(=O)Nc2nnc(C3CCCO3)s2)c(Br)c1` (centres unmarked), the “hERG current change (%, negative = inhibition) at 1uM” value is reported as 13.4%.
With `Cc1ccc(OCc2ccc(-c3ccccc3)cc2)c([N+](=O)[O-])n1` the “hERG current change (%, negative = inhibition) at 1uM” value was 6.79%.
For `Cn1c(=O)c2c(nc(NCC3CCCC(CN)C3)n2Cc2ccc(Cl)cc2Cl)n(C)c1=O` (centres unmarked), the “hERG current change (%, negative = inhibition) at 1uM” value was 13%.
With `CC(C)n1c(N2CCN(C(=O)Nc3ccc(Cl)cc3)CC2)nc2ccccc21` the “hERG current change (%, negative = inhibition) at 1uM” value was -31%.
With `COc1ccc(N2CCCn3c2nc2c3c(=O)n(CCCc3ccccc3)c(=O)n2C)cc1` the “hERG current change (%, negative = inhibition) at 1uM” value was -13.1%.
For `Cc1ccc(-c2nc3ccccc3c(=O)n2-c2c(C)n(C)n(-c3ccccc3)c2=O)cc1`, the “hERG current change (%, negative = inhibition) at 1uM” value was 11.7%.
`O=C(COC(=O)c1ccc([N+](=O)[O-])s1)NC(=O)NCc1ccccc1` was tested, and the “hERG current change (%, negative = inhibition) at 1uM” value was 4.33%.
For `O=C(Nc1ccccc1)N(Cc1cccnc1)Cc1ccco1`, the “hERG current change (%, negative = inhibition) at 1uM” value was 6.35%.
In the case of `COc1cc2c(cc1OC)C(C(C)C)=NC(C)(C)C2.Cl`, the “hERG current change (%, negative = inhibition) at 1uM” value is reported as 10.2%.
`Cc1c(CC(=O)NCC(=O)NCC(=O)O)c(=O)oc2c(C)c3oc4c(c3cc12)CCCC4` was tested, and the “hERG current change (%, negative = inhibition) at 1uM” value was 12.3%.
For `O=C(O)COc1ccc2c(-c3ccccc3)cc(=O)oc2c1`, the “hERG current change (%, negative = inhibition) at 1uM” value was 8.66%.
In the case of `CCn1c(SCC#N)nc2ccccc2c1=O`, the “hERG current change (%, negative = inhibition) at 1uM” value is reported as 9.86%.
`COCc1cc(=O)[nH]c(SCCS(=O)(=O)c2ccc(Cl)cc2Cl)n1` was tested, and the “hERG current change (%, negative = inhibition) at 1uM” value was 12.9%.
For `O=C(O)CN=C(NS(=O)(=O)c1ccccc1)c1ccccc1`, the “hERG current change (%, negative = inhibition) at 1uM” value was 0.367%.
`C/C(=N\NC(=O)COc1ccc(C)cc1Br)c1cc([N+](=O)[O-])cs1` was tested, and the “hERG current change (%, negative = inhibition) at 1uM” value was 8.53%.
For `CCC(=O)NCCNC(=O)c1c(SC)nsc1SC`, the “hERG current change (%, negative = inhibition) at 1uM” value was 1.89%.
With `Cc1cccc(OCCCC(=O)NNC(=O)c2ccccn2)c1` the “hERG current change (%, negative = inhibition) at 1uM” value was 2.36%.
With `NC(=O)/C(=C\c1cccnc1)NC(=O)c1ccccc1` the “hERG current change (%, negative = inhibition) at 1uM” value was 6.46%.
For `COc1ccc(N2CC(C(=O)NCCc3ccc(Cl)cc3)CC2=O)cc1` (centres unmarked), the “hERG current change (%, negative = inhibition) at 1uM” value was -2.44%.
For `Br.N=c1n(N)c2ccccc2n1CC(=O)c1ccc(Br)cc1`, the “hERG current change (%, negative = inhibition) at 1uM” value was -2.41%.
For `Cc1ccccc1C(=O)Nc1nnc(CC(=O)N/N=C/c2cn(Cc3ccccc3)c3ccccc23)s1`, the “hERG current change (%, negative = inhibition) at 1uM” value was 12%.
With `CC(=O)Oc1ccc(-c2cc3ccccc3oc2=O)cc1` the “hERG current change (%, negative = inhibition) at 1uM” value was 3.57%.
`COc1ccc2[nH]c(C(=O)N3CCN(c4ccccc4F)CC3)c(C)c2c1` was tested, and the “hERG current change (%, negative = inhibition) at 1uM” value was 17.1%.
In the case of `COCCCNS(=O)(=O)c1ccc2c(c1)CCN2C(C)=O`, the “hERG current change (%, negative = inhibition) at 1uM” value is reported as 11%.
`C[C@@H]1NC(=O)[C@H](CC(N)=O)NC(=O)c2cc([N+](=O)[O-])cc(I)c2OCC[C@@H](C(=O)NC(CC(=O)O)C(N)=O)NC1=O` (some centres unmarked) (NA[hSer(Ph(2-I,4-NO2,6-CO))][ξD]-NH2; lactam N-3) was tested, and the “hERG current change (%, negative = inhibition) at 1uM” value was 4.65%.
In the case of `O=C(CNC(=O)c1ccc(Cl)cc1Cl)NCC1CCCO1` (centres unmarked), the “hERG current change (%, negative = inhibition) at 1uM” value is reported as 13.5%.
With `CCOC(=O)C1CCN(C(=O)c2ccc3c(SCC(=O)O)c4c(nc3c2)CCCC4)CC1` the “hERG current change (%, negative = inhibition) at 1uM” value was 9.99%.
With `CCN(CC)S(=O)(=O)c1ccc(-c2nnc(SCc3nnc(-c4ccccc4)o3)o2)cc1` the “hERG current change (%, negative = inhibition) at 1uM” value was 11.3%.
In the case of `CSc1cccc(NS(=O)(=O)c2ccc3c(c2)NC(=O)C(C)C(=O)N3)c1` (centres unmarked), the “hERG current change (%, negative = inhibition) at 1uM” value is reported as 4.49%.
`CC(C)C(=O)NC(c1cccc([N+](=O)[O-])c1)c1c(O)ccc2ccccc12` (centres unmarked) was tested, and the “hERG current change (%, negative = inhibition) at 1uM” value was 15.3%.
In the case of `CC(=O)NC(=O)NC1CSCC1OC(C)=O` (centres unmarked), the “hERG current change (%, negative = inhibition) at 1uM” value is reported as 14%.
`COc1ccc(NC(=O)CS(=O)CC(=O)Nc2cccc3cccnc23)cc1` (centres unmarked) was tested, and the “hERG current change (%, negative = inhibition) at 1uM” value was 17.6%.
For `COc1ccc(CCNC(=O)COC(=O)C23CC4CC(CC(C4)C2)C3)cc1`, the “hERG current change (%, negative = inhibition) at 1uM” value was 5.52%.
With `COCCN(C(=S)Nc1ccc(C)cc1C)C(C)c1cccs1` (centres unmarked) the “hERG current change (%, negative = inhibition) at 1uM” value was 5.92%.
